The assay has as its system caspase 3/7. In words: H2O2-induced caspase 3/7 activity (Caspase3/7-GLO). In kind it is cell-based, rat. The note with it: 40 μM H2O2.

For `O=C1c2ccccc2C(=O)c2cc(S(=O)(=O)O)ccc21` [AQ2S, anthraquinone-2-sulfonic acid], the “H2O2-induced caspase 3/7 activity” value runs as follows: (5 μM) “not at the lowest 5 μM concentration”; (25 μM and 50 μM) “inhibited caspase 3/7 activity”; (75 μM) “significantly inhibited caspase 3/7 activity below injured and non-injured levels”.
As to `Cc1cc(O)c2c(c1)C(=O)c1cc(O)cc(O)c1C2=O` [emodin, 6-methyl-1,3,8-trihydroxyanthraquinone], the “H2O2-induced caspase 3/7 activity” value (5, 25 and 50 μM, compared to control injury) is listed as “significantly reduced caspase activity at all 3 concentrations”.

Source of the values: patent publication US10857112B2, “Small molecule inhibitors of RNA binding motif (RBM) proteins for the treatment of acute cellular injury” (University of Pittsburgh—Of the Commonwealth System of …, priority 2012, dated 2020).
